In all, about 33,000 sequences were measured (“E-score (-0.5 to 0.5)”: median about -0.043, highest 2% from about 0.37 on). Some of the results follow.
These sequences were tested against T1, Upc2 (UniProt Q12151) (assay: PBM E-score (8-mer binding enrichment) (E-score (-0.5 to 0.5)); higher = stronger / more preferred TF binding; most listed sequences are background and not binding sites). Details: protein concentration: 200 nM; construct: GST-full length.
T1 sequence: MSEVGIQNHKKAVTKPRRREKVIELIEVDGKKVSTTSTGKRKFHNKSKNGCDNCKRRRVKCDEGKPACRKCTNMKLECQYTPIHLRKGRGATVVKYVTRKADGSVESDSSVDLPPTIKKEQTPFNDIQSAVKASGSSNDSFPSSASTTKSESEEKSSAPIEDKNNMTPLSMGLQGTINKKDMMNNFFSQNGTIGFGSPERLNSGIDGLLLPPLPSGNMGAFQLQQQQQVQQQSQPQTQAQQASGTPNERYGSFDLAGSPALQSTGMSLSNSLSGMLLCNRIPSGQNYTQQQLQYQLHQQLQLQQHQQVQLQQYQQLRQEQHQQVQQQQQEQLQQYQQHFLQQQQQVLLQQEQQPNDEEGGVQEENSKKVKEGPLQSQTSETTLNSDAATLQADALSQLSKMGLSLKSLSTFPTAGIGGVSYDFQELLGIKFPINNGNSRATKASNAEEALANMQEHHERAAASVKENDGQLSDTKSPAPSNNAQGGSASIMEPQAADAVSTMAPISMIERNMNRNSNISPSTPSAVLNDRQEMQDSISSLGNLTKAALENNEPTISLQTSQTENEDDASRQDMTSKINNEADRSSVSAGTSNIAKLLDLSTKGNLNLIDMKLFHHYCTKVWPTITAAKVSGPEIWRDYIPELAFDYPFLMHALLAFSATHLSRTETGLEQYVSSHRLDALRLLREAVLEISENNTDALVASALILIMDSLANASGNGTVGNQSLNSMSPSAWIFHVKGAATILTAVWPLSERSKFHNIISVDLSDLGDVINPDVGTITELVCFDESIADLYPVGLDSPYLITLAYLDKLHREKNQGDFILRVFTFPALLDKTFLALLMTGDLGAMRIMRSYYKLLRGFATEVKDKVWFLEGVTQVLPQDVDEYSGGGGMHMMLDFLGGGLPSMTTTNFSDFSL
How it was run: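 Masliner-normalised scans of fluorescent anti-GST signal were the basis for scoring. That signal came from GST-tagged yeast transcription factors applied at about 100-200 nM to double-stranded universal all-10-mer Agilent arrays on fresh or once-stripped slides. Each ungapped eight-base word, pooled with its reverse complement, received an E-score from the Universal PBM Analysis Suite.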

| Sequence | PBM E-score |
| --- | --- |
| ATCAAACC | -0.0118 |
| GCATAGCC | -0.135 |
| ACAACCCC | -0.0395 |
| GATGGTAC | 0.139 |
| ATCAGATC | -0.278 |
| CAATTGTA | 0.0121 |
| CGTGCAAC | 0.00465 |
| GTCTTAGA | -0.179 |
| GCTGCTAA | -0.105 |
| AATACAGG | 0.0724 |
| AGGCTTAT | -0.251 |
| ATAACGGA | -0.042 |
| ATAGCCTA | -0.0517 |
| CCATTATC | 0.136 |
| CCAGTCCG | -0.13 |
| AACAGATC | 0.107 |
| GTTGGCTA | -0.217 |
| ACGCGCCC | 0.109 |
| GGGTTACC | 0.0304 |
| CATCTGCC | -0.172 |
| TAATCAGA | -0.123 |
| CATTTCAC | -0.116 |
| CTCCGCAC | -0.109 |
| GCCCTCAC | -0.195 |
| CCCCTCCA | -0.141 |

| Sequence | PBM E-score |
| --- | --- |
| AGATTCCC | -0.0511 |
| ACGATGGG | 0.298 |
| CTATAACA | -0.265 |
| CCTGGGGC | -0.165 |
| AACTGCTC | -0.109 |
| CGCTCTCC | -0.138 |
| ACATGAAT | -0.0498 |
| AGCTCCTC | -0.292 |
| CCGTGCCC | -0.208 |
| AAACGAGT | 0.477 |
| AACGATGC | 0.352 |
| AGTTTCAA | -0.0446 |
| CTCAATGC | -0.102 |
| ATGTTGAA | 0.0438 |
| CGACTTGC | -0.106 |
| TACAGCTA | -0.051 |
| CGTGAAAC | 0.0416 |
| ACAATGAT | -0.102 |
| GTGAGGAA | -0.13 |
| ACGCAAAT | -0.15 |
| TCCACGAA | 0.0895 |
| GACATTAA | 0.0124 |
| CCCCACGA | -0.151 |
| CATGAGGA | -0.303 |
| ATATAAAC | 0.187 |

| Sequence | PBM E-score |
| --- | --- |
| CGCACGGC | -0.197 |
| AGTCGGCC | -0.081 |
| GGGTTTAA | -0.00107 |
| GTTGCGAA | 0.106 |
| TCGGGCAA | -0.0524 |
| AGACAGCG | -0.214 |
| GTCGGTAA | 0.166 |
| ACATTCAG | -0.204 |
| AGCCAGTA | -0.329 |
| AAATAAAA | 0.0557 |
| TAGATATA | 0.142 |
| GAGGAATC | -0.2 |
| AATACAAC | 0.0217 |
| AATAACCA | -0.0566 |
| CTTACCAC | -0.0651 |
| ATGATTAC | -0.0879 |
| AATTTACA | -0.0205 |
| AGTATACG | 0.455 |
| CCCCTTAC | 0.118 |
| CAATAGCA | -0.282 |
| ACTACGCC | -0.23 |
| ATAACATC | 0.0972 |
| GCTTACGA | 0.421 |
| CGTCTCAA | -0.0634 |
| AAAGAAAA | 0.11 |

| Sequence | PBM E-score |
| --- | --- |
| GTAATAGA | 0.0805 |
| ATTCTAAC | -0.125 |
| CCCTCCCA | -0.205 |
| AACAAGTA | -0.0163 |
| AACCTCTG | -0.186 |
| TGGCGCCA | -0.211 |
| ACTGGGTC | -0.239 |
| GGAAAGAA | -0.173 |
| ATGGTATA | 0.152 |
| TGCGCCAA | -0.122 |
| CGGGGTCA | 0.117 |
| CCTGGGAC | -0.25 |
| AGTACGCG | 0.189 |
| GACTCGGC | -0.101 |
| GCGTAATA | 0.0953 |
| TATCCCCA | -0.177 |
| GAATAGTC | 0.017 |
| GTTCAATA | 0.0787 |
| AAGATCCA | -0.168 |
| CTTTCTTA | 0.107 |
| CTTCCGGA | -0.31 |
| GTAAACAA | 0.234 |
| CGCCATCC | -0.14 |
| ATGGGAAA | -0.284 |
| CACTCCAA | -0.115 |

| Sequence | PBM E-score |
| --- | --- |
| CAAAAGTC | -0.0795 |
| ATAGCTCC | -0.127 |
| GCTATACA | 0.0981 |
| ACCATAGT | -0.167 |
| GTGTCTTA | -0.0182 |
| GCACCAGA | -0.23 |
| AGCCGCAA | -0.231 |
| CCGCTTTC | -0.0566 |
| ACAATAAT | 0.0963 |
| CGACCTCG | 0.161 |
| TCACGAGA | 0.0145 |
| ACTGAAGC | -0.0751 |
| CACTCCTG | -0.303 |
| GCGTTAGA | 0.00044 |
| AATTAACG | 0.272 |
| ATTACCTC | 0.0878 |
| AACGCGAC | 0.161 |
| ATGCAAAG | -0.0684 |
| GGGCTTCA | -0.206 |
| ATAGTCAG | 0.0208 |
| CAAACGCG | 0.294 |
| ATCTGGTC | -0.246 |
| TGATGCAA | 0.0449 |
| GACAAACA | -0.0624 |
| TGCCGACA | 0.0272 |

| Sequence | PBM E-score |
| --- | --- |
| CCATTGTA | 0.0132 |
| TACAAGCA | -0.0261 |
| AATGCACT | -0.0453 |
| ACGTATAT | 0.404 |
| CCCGAAAC | 0.212 |
| ATGATAGC | 0.0555 |
| GAAAGTCA | 0.0886 |
| AAAGCCCA | 0.0158 |
| AAGAATTA | -0.0509 |
| ACCCGGAA | -0.0434 |
| CTGAAGGC | -0.226 |
| GTCTAGAA | -0.0707 |
| TATTTAGA | -0.0346 |
| CATCCCCG | -0.0157 |
| CAAAATTC | 0.151 |
| GGCCTTAC | 0.0457 |
| CGGGCGGA | -0.229 |
| AAAGATAA | 0.0111 |
| CTTATCAC | 0.0559 |
| GGATGCGA | 0.166 |
| AGGAAACT | -0.334 |
| ACCCTATA | 0.0801 |
| ATTCCATC | 0.0445 |
| CTACAGGA | -0.115 |
| AAATGATC | -0.0667 |

| Sequence | PBM E-score |
| --- | --- |
| CGGGCTCC | -0.15 |
| CAGGACCG | -0.105 |
| ACGTTTAG | 0.397 |
| GCCAATTA | -0.0632 |
| CGTGTGTC | 0.125 |
| ATGCTTCG | 0.247 |
| ACAGGATC | -0.233 |
| CCCAATTA | -0.178 |
| CCACATGA | -0.277 |
| GAAGTGAC | -0.0192 |
| CGAAGGGC | -0.0288 |
| CTCACGTC | -0.0385 |
| CGGGACTA | -0.294 |
| GAAACGAA | 0.41 |
| AAAATATG | 0.0278 |
| CTAAGTGC | -0.107 |
| CCATAGGG | -0.24 |
| AGATGATC | 0.0391 |
| GTCTGCGA | -0.0756 |
| AGTCGTCG | 0.0489 |
| TGCAAGCA | -0.165 |
| CGTCATTC | -0.0253 |

— the supplement of paper PMC3334620
